Measurements published in PubChem BioAssay AID1508624 (National Center for Advancing Translational Sciences (NCATS), 2021).
The whole screen tested about 48,000 compounds, of which about 120 (0.25%) were called active. Not shown: some 4% with an inconclusive outcome. The call rests on the fitted dose curve; in most records, active means well fitted activation curve with a large enough effect; inconclusive means small, poorly fitted or top-dose-only effect, or another doubt; inactive means no such curve, though single readings can be large or run the other way. This is one part of the list.

Assay: Primary qHTS for Identification of Small Molecule Activators of Huntingtin-Antisense Promoter Activity; further: nearly all actives have a fitted effect of over 55% in size
Conditions: HEK293 HTT-AS promoter firefly luciferase reporter, 24 h; series mostly up to 57.5 µM; activity change, positive = activation: at the top concentration
Summary of the method: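 Luminescence was read after Dual-Glo reagent and a 10 min room-temperature incubation. Values were normalized to vehicle (0% activity) and zero RLU (-100% activity). Reporter HEK293 cells had been exposed to compounds (up to 57.5 uM final) for 24 h.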

Activity change, positive = activation, inactive:
Cc1nn2c(C)c(C(=O)NCCc3ccccc3)cnc2c1-c1ccccc1 3.31%
COc1ccc(Cl)cc1NC(=O)c1cnc2sc(N3CCOCC3)nn2c1=O -17.2%
Cc1ccc(CNC(=O)c2cnc3c(-c4ccc(F)cc4)c(C)nn3c2C)o1 -2.96%
CN1CCN(CCNC(=O)c2cnn(-c3ccc(Cl)cc3)c2C2CCN(C(=O)OC(C)(C)C)CC2)CC1 -10.3%
CCN(C(=O)C1CCN(S(=O)(=O)c2c(C)noc2/C=C/c2ccc(C)cc2)CC1)c1cccc(C)c1 -7.3%
CCOc1ccc(-c2nonc2NC(=O)c2oc3ccc(CC)cc3c2C)cc1 -11.3%
CCC(=O)N1CCc2cc(S(=O)(=O)NC(Cc3ccccc3)C(=O)O)ccc21 (stereo not given) -1.49%
COc1ccc(NC(=O)CSc2nc3ccccc3c(=O)n2CCC(=O)NC2CCCCC2)c(OC)c1 0.0642%
O=C(CCCCCn1c(=O)c2sccc2n(Cc2ccccc2Cl)c1=O)NCc1ccc2c(c1)OCO2 -13.1%
Cc1ccc(S(=O)(=O)Nc2ccc3nc(-c4cccc(Cl)c4)oc3c2)cc1 -12.6%
COc1ccc(CCNC(=O)C(C)n2nc(C)c3sc4ccccc4c3c2=O)c(OC)c1 (stereo not given) -3.47%
Fc1ccc(Nc2nc3ccccc3n3cnnc23)c(F)c1 -0.388%
COc1ccc(NC(=O)c2nc(-c3ccc(C)cc3)n3c2CCCCC3)cc1 -24.3%
COc1cccc(C(=O)N(Cc2nc(-c3ccc(Cl)cc3)no2)C(C)C)c1OC -34.2%
CCSc1nc2ccccc2c(OCc2ccccc2Cl)c1C(=O)OC -4.56%
COc1ccc(Oc2nc3c(c(=O)n(Cc4ccc(Br)cc4)c(=O)n3C)n2C)cc1 12.8% [at 11.5 µM, percent change from vehicle, -100% = no light]
O=C(c1ccc(F)cc1)n1nc(-c2cccnc2)nc1NCc1ccccc1 8.73%
COc1ccc(-n2ccnc(NCCc3ccccc3)c2=O)cc1OC -24.6%
Cc1nc2nc(CNC(=O)c3cccc(F)c3)nn2c(C)c1CCC(=O)Nc1cccc(Cl)c1 -7.8%
Cc1nn(C(C)C(=O)Nc2ccccc2C(F)(F)F)c(=O)c2c1sc1ccccc12 (stereo not given) -11.9%
CC(C)(C)c1ccc(C(=O)Nc2c(C(=O)c3ccc(F)cc3)oc3ccccc23)cc1 1.17%
COc1ccccc1CNC(=O)COCc1cc(-c2cccs2)on1 -6.1%
Cc1ccc(N(CC(C)C)S(=O)(=O)c2nnc(NC(=O)C(C)C)s2)cc1 -8.67%
CCOC(=O)C1CCN(c2ncnc3c2c(-c2ccccc2)cn3-c2ccc(Cl)cc2)CC1 -11.5%
CCOc1ccccc1CNS(=O)(=O)c1cc(-c2onc(C)c2C)ccc1OC -26.7%
COc1cnc(NS(=O)(=O)c2ccc(N)cc2)nc1
CCOC(=O)c1c(C)[nH]c(C)c1S(=O)(=O)NCC(=O)NCc1ccccc1C -0.0917%
CCC(=O)N1c2ccccc2CC1C(=O)N1CCN(c2ccccc2F)CC1 (stereo not given) -5.95%
Cc1ccc(NC(=O)Cn2c(=O)n(CCCCC(=O)NCc3ccc4c(c3)OCO4)c(=O)c3ccccc32)cc1 -33.2%
Clc1ccccc1CSc1nc(NCCc2ccccc2)c2ccccc2n1 -11.1%
CCOc1ccccc1Oc1nc(C)nc2c1oc1ccccc12 -19.7%
N#Cc1c(C(F)(F)F)cc(-c2cccs2)nc1SCc1ccccc1F -25.3%
CCOc1ccccc1Nc1sc(C(=O)c2ccc(Cl)cc2)c(N)c1S(=O)(=O)c1ccccc1 0%
O=C(O)CCn1c2c(c3ccccc31)C[C@H](NS(=O)(=O)c1ccc(F)cc1)CC2
O=C(CSc1ncc2c(n1)-c1ccccc1N(Cc1ccc(Cl)cc1)S2(=O)=O)c1ccccc1 5.59%
CCN(Cc1ccccc1)C(=O)Cn1ncc2c(=O)oc3ccc(C)cc3c21 -3.99%
Cc1cccc(N2CCN(C(=O)c3ccc4c(c3)N(Cc3cccc(Cl)c3)C(=O)c3ccccc3S4(=O)=O)CC2)c1C -3.59%
CCOc1ccc(NC(=O)CCc2nnc3n(C)c(=O)c4sccc4n23)cc1 -10.8%
O=C(O)CCC(=O)Nc1ccc(S(=O)(=O)Nc2nccs2)cc1 -15%
Cc1cccc(C(=O)NNc2ncnc3c2cnn3-c2ccc(C)c(Cl)c2)c1 -33.2%
CC(CNC(=O)CCCn1c(=O)c2cccn2c2ccc(F)cc21)c1ccccc1 (stereo not given) -22.8%
Cc1ccc(-c2nc(CS(=O)CC(=O)NCCc3ccc(Cl)cc3)c(C)o2)cc1 (stereo not given) -20.4%
COc1cc(NC(=O)C2Cc3ccccc3N2C(=O)c2ccccc2)cc(OC)c1 (stereo not given) -24.9%
CCOc1ccc(-n2nc(CO)c(C(=O)NCC(C)O)n2)cc1 (stereo not given) 3.29%
COc1ccc(OCCn2nnc3sc4c(c3c2=O)CCCC4)cc1 7.25%
COc1ccc(N2CCN(c3ncnc4c3nnn4C)CC2)cc1 -4.33%
COC(=O)c1cc2sccc2n1CC(=O)Nc1cc(Cl)ccc1OC -85%
CCOc1ccc(-n2c(=O)c3c(C)c(C(=O)N(C)C)sc3n(Cc3cc(C)ccc3C)c2=O)cc1 -6.69%
Cc1ccc(S(=O)(=O)C(CNC(=O)C(=O)NCc2ccc(Cl)cc2)c2ccco2)cc1 (stereo not given) -20.2%
CN(C(=O)CSc1nc2ccccc2n1Cc1ccccc1C#N)c1ccccc1 -32%
CCOc1ccc(-c2nc3cc(NC(=O)COc4cccc(C)c4)ccc3o2)cc1 -18.2%
O=c1c2sc3ccccc3c2n(Cc2ccc(F)cc2Cl)c(=O)n1Cc1ccccc1 -12.4%
COC(=O)c1ccc2nc(C)cc(Nc3cccc(Cl)c3C)c2c1 -35.5%
Cc1ccc2oc(-c3ccc(C)c(NC(=O)c4ccc(-c5ccccc5[N+](=O)[O-])o4)c3)nc2c1 18.7%
CCOc1ccc(S(=O)(=O)N(CC(=O)Nc2ccc3c(c2)OCO3)c2ccc(C)cc2)cc1 -11.5%
CCn1cc(S(=O)(=O)c2ccc(Cl)cc2)c(=O)c2cc(F)c(N3CCOCC3)cc21 -5.97%
CCN(CC)S(=O)(=O)c1ccc(N2CCCCS2(=O)=O)cc1 -0.0713%
Cc1ccc2onc(CNC(=O)N3CCN(c4cccc(C(F)(F)F)c4)CC3)c2c1 -18.6%
Cc1ccc(CNC(=O)CN2C(=O)CCc3cc(S(=O)(=O)N4CCCCC4)ccc32)cc1 -2.84%
COc1cc(CN(C(=O)c2ccc(Cl)cc2)C2CCS(=O)(=O)C2)cc(OC)c1OC (stereo not given) -3.49%
CCOC(=O)c1ccc(-c2ccc(/C=C(\C#N)C(=O)Nc3ccc(C)cc3)o2)cc1 17.9%
CCC(C(=O)NC1CCCCC1)n1c(SCc2cccc(F)c2)nc2ccncc21 (stereo not given) -28.5%
COc1ccccc1NC(=O)Cn1ccn(-c2cc(C)cc(C)c2)c(=O)c1=O -4.32%
CC(CNC(=O)C1CCN(C(=O)c2cc3sccc3n2C)CC1)c1ccccc1 (stereo not given) -4.92%
CCOc1ccc(CNCc2c(C(=O)O)n(Cc3ccccc3C)c3cc(OC)ccc23)cc1OC -16.8%
O=C(C1CCCCC1)N1CC(=O)N2CCCc3ccccc3C2C1 (stereo not given) -12.1%
Cc1ccc(Cl)cc1Nc1nn2c(=O)c3ccc(C(=O)NC(C)c4ccccc4)cc3nc2s1 (stereo not given) -36.2%
Cc1cccc(CN2CCN(C(c3ccccc3)c3ccc(Cl)cc3)CC2)c1 (stereo not given)
Cc1ccc(Cl)cc1N1CCN(C(=O)CCS(=O)(=O)c2ccc3c(c2)oc(=O)n3C)CC1 -31.4%
Cn1nc(C(=O)NCc2ccccc2)c2c1-c1ccccc1S(=O)(=O)C2 -6.54%
CCOc1cccc(NC(=O)C2CC(=O)N(C)C(=Nc3ccc(OC)cc3)S2)c1 (stereo not given) -17.4%
CCc1ccc(N(CC)C(=O)Cn2cnc3sc(C)c(S(=O)(=O)N4CCN(c5ncccn5)CC4)c3c2=O)cc1 -4.69%
CCCOc1ccccc1C1C(C(=O)Nc2ccccc2)=C(C)Nc2nnnn21 (stereo not given) -9%
CCCC1=Nc2cc(C(=O)NCCOC)ccc2Sc2ccccc21 -37.8%
Cc1cccc(S(=O)(=O)c2cn(C)c3cc(N4CCC(C)CC4)c(F)cc3c2=O)c1 7.89%
CCC(=O)N1c2ccc(S(=O)(=O)CCC(=O)NCc3cccc(OC)c3)cc2CC1C (stereo not given) -7.16%
O=C(NCc1ccccc1Cl)c1nnc(Cc2ccc(Cl)cc2)o1 -4.2%
COc1ccc(-c2noc(CSc3nnc(C)n3-c3ccc(C)c(C)c3)n2)c(OC)c1 -28.9%
COc1ccc(-c2nc(SCC(=O)NCCc3ccccc3)n[nH]2)cc1 -15.7%
Cc1ccc2onc(CC(=O)N3CCN(c4ccccc4)CC3)c2c1 -5.96%
COc1ccccc1O -7.32% [at 116 µM, percent change from vehicle, -100% = no light]
CCOc1ccc(NC(=O)C(C)n2c(=O)cc(C)c3c(C)nn(-c4ccccc4)c32)cc1 (stereo not given) -5.89%
N#C/C(=C\c1cc(Br)c(O)c(Br)c1)c1nc2ccccc2c(=O)[nH]1 -18.9%
CCc1ccc(OCC(=O)Nc2ccc3c(c2)c2ccccc2n3CC)c(Br)c1 -0.694% [at 11.5 µM, percent change from vehicle, -100% = no light]
Cc1ccc(CCNC(=O)CCn2nc(-c3ccc(C)cc3)ccc2=O)cc1 -10.9%
COC(=O)c1ccc2c(=O)n(CCCCCC(=O)N3CCN(c4ccc(Cl)cc4)CC3)c(=O)[nH]c2c1 -8.62%
COc1cccc(C(=O)n2nc(-c3cccnc3)nc2NCc2ccc(F)cc2)c1 -5.69%
CCN(CC)CCSc1nnc2c3cc(F)ccc3n(CC)c2n1 -16.6%
COc1ccccc1CNC(=O)Cn1c(=O)nc(-c2ccccc2)c2ccccc21 -0.5%
CCCSc1nnc2c(n1)OC(c1cccs1)Nc1ccc(Br)cc1-2 (stereo not given) 10.3% [at 11.5 µM, percent change from vehicle, -100% = no light]
Oc1c(C(c2ccccc2F)N2CCCC2)sc2nc(-c3ccco3)nn12 (stereo not given) -12.6%
Cc1c(Cl)cccc1NC(=O)Nc1ccc2snnc2c1 -35.8%
O=C(NCCc1ccccc1)c1ccc(CS(=O)(=O)c2ccc(Cl)cc2)o1 -7.65%
CNCCC(Oc1ccccc1OC)c1ccccc1 (stereo not given) -2.19%
COc1ccc(OCC(=O)NCC(c2ccc(OC)cc2)N2CCOCC2)cc1 (stereo not given) -14.7%
